Experimental data: a collection of fitness landscapes (doi:10.1038/s41467-024-54723-y)
Whole data set: some 18,000 sequences, median “TetR repression strength (sort-seq, GFP reporter)” near 0.23, cut for the highest 2% near 0.68. The list shows a part of the results.

Molecular target: TetR (class B, Tn10) (UniProt P04483)
Experiment: TetR repression strength (sort-seq, GFP reporter) (relative to tetO2 = 1); higher = stronger repression
Conditions: E. coli
Summary of the method: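 Three independent transformations of E. coli SIG10-MAX were made with a low-copy plasmid library randomizing eight operator positions between a constitutive promoter and sfGFP, with constitutive TetR. Following 5 h at 37 °C in LB plus 50 µg/mL chloramphenicol, 10^6 cells went through FACS into 13 fluorescence bins, and each bin was sequenced by Illumina. Repression strength was defined as the top bin index plus one minus the read-weighted mean bin, divided by the unaltered operator's value. Averages included only members reaching ≥30 reads in all replicates with a CV ≤0.5.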

UniProt P04483, sequence (P04483 whole entry): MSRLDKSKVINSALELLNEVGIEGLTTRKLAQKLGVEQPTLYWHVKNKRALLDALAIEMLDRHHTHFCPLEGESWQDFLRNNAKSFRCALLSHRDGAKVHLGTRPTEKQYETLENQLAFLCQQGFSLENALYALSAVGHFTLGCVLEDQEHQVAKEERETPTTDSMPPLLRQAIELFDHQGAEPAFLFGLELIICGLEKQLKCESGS

| Sequence | TetR repression strength |
| --- | --- |
| TCCCCTGCAGTGGCGGAGA | 0.235 |
| TCCCACCTAGTATTCGAGA | 0.516 |
| TCCCCCTAAGTGCCCGAGA | 0.304 |
| TCCCGCCTAGTCCGCGAGA | 0.17 |
| TCCCGAACAGTTGGGGAGA | 0.306 |
| TCCCTTTTAGTGCCTGAGA | 0.325 |
| TCCCCATTAGTATTCGAGA | 0.24 |
| TCCCGAGAAGTAATAGAGA | 0.442 |
| TCCCCTTTAGTTCGAGAGA | 0.232 |
| TCCCGGGCAGTAAGGGAGA | 0.46 |
| TCCCTCGAAGTAGTGGAGA | 0.369 |
| TCCCTGTCAGTTATAGAGA | 0.649 |
| TCCCTTTGAGTGGGAGAGA | 0.117 |
| TCCCCTTTAGTCTGGGAGA | 0.166 |
| TCCCCCGTAGTAGGAGAGA | 0.197 |
| TCCCCAGAAGTTTTGGAGA | 0.182 |
| TCCCACGCAGTCAGGGAGA | 0.182 |
| TCCCTGTGAGTCATCGAGA | 0.105 |
| TCCCTTGCAGTCACGGAGA | 0.191 |
| TCCCTTGTAGTCACAGAGA | 0.106 |
| TCCCTTTAAGTCGCTGAGA | 0.207 |
| TCCCCGAAAGTGCGCGAGA | 0.155 |
| TCCCGCGAAGTAATTGAGA | 0.32 |
| TCCCAAAAAGTATTAGAGA | 0.191 |
| TCCCGGAGAGTATCAGAGA | 0.893 |
| TCCCTGGCAGTCGTGGAGA | 0.0845 |

| Sequence | TetR repression strength |
| --- | --- |
| TCCCCTTTAGTCCTCGAGA | 0.418 |
| TCCCGATGAGTATTTGAGA | 0.266 |
| TCCCTGTAAGTCACGGAGA | 0.193 |
| TCCCTTGCAGTGATCGAGA | 0.654 |
| TCCCGAAAAGTCGGAGAGA | 0.311 |
| TCCCGTGGAGTACCGGAGA | 0.117 |
| TCCCGAAAAGTTAGCGAGA | 0.164 |
| TCCCCTAGAGTTGGGGAGA | 0.122 |
| TCCCGTGGAGTTTAGGAGA | 0.234 |
| TCCCGACCAGTGTTCGAGA | 0.375 |
| TCCCTTAGAGTGGAGGAGA | 0.0629 |
| TCCCATGAAGTCGGGGAGA | 0.0204 |
| TCCCAGAGAGTTGAAGAGA | 0.152 |
| TCCCGTGCAGTCATTGAGA | 0.276 |
| TCCCGGAGAGTGTCGGAGA | 0.291 |
| TCCCGTGAAGTATTTGAGA | 0.335 |
| TCCCTTTAAGTAGGGGAGA | 0.0919 |
| TCCCTCCTAGTGCTTGAGA | 0.212 |
| TCCCAGCTAGTAGGGGAGA | 0.233 |
| TCCCAATGAGTCTGCGAGA | 0.281 |
| TCCCGGTAAGTCTCTGAGA | 0.311 |
| TCCCGGCTAGTACTTGAGA | 0.199 |
| TCCCTTTGAGTACCGGAGA | 0.283 |
| TCCCTGTCAGTGGGTGAGA | 0.348 |
| TCCCGCAAAGTGGCTGAGA | 0.0444 |
| TCCCAACAAGTGACCGAGA | 0.231 |

| Sequence | TetR repression strength |
| --- | --- |
| TCCCAATGAGTGTTCGAGA | 0.26 |
| TCCCGCGCAGTCCAGGAGA | 0.121 |
| TCCCCACGAGTACCAGAGA | 0.475 |
| TCCCGTCTAGTTGACGAGA | 0.0662 |
| TCCCTACGAGTGTGTGAGA | 0.305 |
| TCCCGTACAGTCTCTGAGA | 0.205 |
| TCCCAACCAGTTGGGGAGA | 0.0981 |
| TCCCCCGTAGTGGGTGAGA | 0.109 |
| TCCCTGTCAGTGCTCGAGA | 0.534 |
| TCCCACGGAGTGGTGGAGA | 0.11 |
| TCCCCCGTAGTGTGGGAGA | 0.124 |
| TCCCAGATAGTCCTGGAGA | 0.167 |
| TCCCGGGGAGTGATAGAGA | 0.531 |
| TCCCCGCCAGTTGTGGAGA | 0.181 |
| TCCCGCGTAGTGGTTGAGA | 0.826 |
| TCCCTGTGAGTCTCAGAGA | 0.365 |
| TCCCTTGTAGTACTCGAGA | 0.182 |
| TCCCTGCTAGTTCGCGAGA | 0.204 |
| TCCCTTTCAGTCATCGAGA | 0.53 |
| TCCCCTATAGTGGATGAGA | 0.0379 |
| TCCCGAGCAGTCGGAGAGA | 0.119 |
| TCCCGATCAGTGACAGAGA | 0.742 |
| TCCCTAGGAGTTCGAGAGA | 0.115 |
| TCCCTAAGAGTAGTTGAGA | 0.207 |
| TCCCTTTTAGTGGAAGAGA | 0.271 |
| TCCCCAGGAGTAAGAGAGA | 0.381 |

| Sequence | TetR repression strength |
| --- | --- |
| TCCCACTTAGTCTGTGAGA | 0.188 |
| TCCCCTACAGTAAGGGAGA | 0.153 |
| TCCCGAGCAGTTGCTGAGA | 0.168 |
| TCCCTGGCAGTTTGCGAGA | 0.65 |
| TCCCAGTGAGTTGTGGAGA | 0.173 |
| TCCCACCTAGTTTTGGAGA | 0.348 |
| TCCCGCACAGTTATAGAGA | 0.275 |
| TCCCCCTGAGTGGGCGAGA | 0.241 |
| TCCCTTTTAGTGTTCGAGA | 0.282 |
| TCCCTGTCAGTCACGGAGA | 0.181 |
| TCCCAACTAGTTCGGGAGA | 0.144 |
| TCCCTATAAGTTCAAGAGA | 0.458 |
| TCCCGGCTAGTCCGGGAGA | 0.264 |
| TCCCTGTTAGTGCGCGAGA | 0.617 |
| TCCCTTGCAGTCCCTGAGA | 0.296 |
| TCCCGGTCAGTGGGGGAGA | 0.19 |
| TCCCACGGAGTGCACGAGA | 0.285 |
| TCCCATCAAGTGCGAGAGA | 0.166 |
| TCCCGTCGAGTGGTCGAGA | 0.0327 |
| TCCCAGTGAGTAGGTGAGA | 0.112 |
| TCCCTAGAAGTTTGGGAGA | 0.173 |
| TCCCGAACAGTTGACGAGA | 0.204 |
| TCCCTTCAAGTGGGAGAGA | 0.0682 |
| TCCCTTTCAGTGGGCGAGA | 0.382 |
| TCCCAGCTAGTAGGCGAGA | 0.0972 |
| TCCCGTCGAGTATCCGAGA | 0.0859 |

| Sequence | TetR repression strength |
| --- | --- |
| TCCCCTGGAGTAATTGAGA | 0.367 |
| TCCCCAACAGTAGGAGAGA | 0.207 |
| TCCCGCGAAGTTCGGGAGA | 0.0228 |
| TCCCGCTAAGTTGCAGAGA | 0.265 |
| TCCCGCAAAGTCGATGAGA | 0.0237 |
| TCCCCCGCAGTCCTCGAGA | 0.41 |
| TCCCGGGGAGTGGCAGAGA | 0.34 |
| TCCCCCAGAGTCAGTGAGA | 0.163 |
| TCCCGATAAGTGAAAGAGA | 0.451 |
| TCCCGGGCAGTTTTGGAGA | 0.0982 |
| TCCCTGATAGTGCTCGAGA | 0.215 |
| TCCCCTGAAGTCGTAGAGA | 0.199 |
| TCCCCATGAGTGCCAGAGA | 0.266 |
| TCCCAACGAGTTGTTGAGA | 0.0336 |
| TCCCCTACAGTTCTGGAGA | 0.207 |
| TCCCCGAAAGTTACTGAGA | 0.243 |
| TCCCAGGCAGTGATTGAGA | 0.247 |
| TCCCGGAGAGTAGGGGAGA | 0.268 |
| TCCCGTAGAGTTGTTGAGA | 0.207 |
| TCCCCGACAGTCGTTGAGA | 0.103 |
| TCCCGCGGAGTACGTGAGA | 0.102 |
| TCCCGTCCAGTGAATGAGA | 0.387 |
| TCCCATTCAGTGCACGAGA | 0.691 |
| TCCCAGGCAGTGTGGGAGA | 0.289 |
| TCCCCTTAAGTACGAGAGA | 0.0791 |
| TCCCGCTGAGTTCGTGAGA | 0.185 |
